# Assay results reported in the supplement of paper PMC3334620.
# The full ranking holds about 33,000 sequences; the median of “E-score (-0.5 to 0.5)” is about -0.036, and the highest 2% start at about 0.37. This is one part of the list.
# Molecular target: T1, Yer064c (UniProt P40041)
# T1 sequence: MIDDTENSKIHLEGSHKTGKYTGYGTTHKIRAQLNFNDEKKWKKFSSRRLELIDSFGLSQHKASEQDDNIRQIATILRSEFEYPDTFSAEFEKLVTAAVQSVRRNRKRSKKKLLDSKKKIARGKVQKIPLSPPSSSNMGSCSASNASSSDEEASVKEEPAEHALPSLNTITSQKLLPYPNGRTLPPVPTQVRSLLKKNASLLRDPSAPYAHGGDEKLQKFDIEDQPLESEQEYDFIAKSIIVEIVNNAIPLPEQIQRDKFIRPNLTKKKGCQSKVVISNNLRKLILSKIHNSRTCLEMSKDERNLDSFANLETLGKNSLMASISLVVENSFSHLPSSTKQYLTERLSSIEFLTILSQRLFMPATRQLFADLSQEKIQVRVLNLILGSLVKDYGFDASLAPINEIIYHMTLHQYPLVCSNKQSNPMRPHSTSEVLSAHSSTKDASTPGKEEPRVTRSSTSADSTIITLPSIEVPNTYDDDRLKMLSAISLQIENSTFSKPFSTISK
# Assay: PBM E-score (8-mer binding enrichment) (E-score (-0.5 to 0.5)); higher = stronger / more preferred TF binding; most listed sequences are background and not binding sites
# Details: protein concentration: 200 nM; construct: GST-full length
# How it was run: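 Full-length yeast transcription factors or their DNA-binding domains, GST-tagged and expressed with PURExpress, were applied at about 100-200 nM to universal all-10-mer Agilent arrays. These arrays had been made double-stranded by primer extension on fresh or once-stripped slides. Detection used fluorescent anti-GST, normalisation used masliner, and E-scores for ungapped eight-base words pooled with reverse complements came from the Universal PBM Analysis Suite.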
row,Sequence,PBM E-score
1,ACTTAATA,0.229
2,AGCCGTGC,-0.181
3,GGATTGAC,0.19
4,ATACCGGC,-0.275
5,CTGTTTAA,0.154
6,AATCGCAA,0.152
7,TAAGCTAA,0.063
8,AGTACGGG,-0.224
9,CACATCTG,0.0495
10,CCTTCGTA,-0.15
11,CTTTCGGC,-0.0605
12,GTCGCCAC,0.044
13,AAGTAAAC,0.126
14,ATGGATAC,0.117
15,AAACAAAG,-0.0527
16,TCTGGTAA,0.0513
17,CCACACCA,-0.0216
18,AGGCACCG,-0.281
19,GAGAGGCA,-0.22
20,GTACCGAC,-0.057
21,AGAACTCT,0.0393
22,CGATAGTC,0.422
23,CGTGGCAA,-0.305
24,TCATTTAA,0.226
25,ACGAGTGC,-0.227

row,Sequence,PBM E-score
1,ACTAAACC,0.197
2,TATAACGA,0.133
3,ATCGGCTA,-0.049
4,CCCACCTA,0.0214
5,CCGTTGAA,-0.00435
6,CAGAATCC,-0.0882
7,CATATAGC,-0.00988
8,ATGGTTAC,0.264
9,CGCCACCA,-0.222
10,GCGTAACC,-0.127
11,ACAGTAAA,0.114
12,AAGGGCAG,-0.169
13,CGACTTAC,0.256
14,GGATTGGA,-0.195
15,GGCAATTA,-0.0137
16,GAGTGACC,0.0962
17,CTGCAGGA,0.121
18,CATACACG,0.0241
19,GTAAGCGA,0.0159
20,CCATAAAC,-0.00848
21,AGGCGGTA,-0.162
22,CGAGCTCA,-0.0703
23,CAGGTAAG,-0.0153
24,AATAGCGT,-0.137
25,TCCGAGAA,-0.0812

row,Sequence,PBM E-score
1,GAATGACA,-0.232
2,GGTCCCAC,-0.179
3,GGGTGGCA,-0.154
4,CCAGGCGG,-0.0976
5,CGACCCGA,-0.243
6,AAGAATGT,-0.0525
7,AGACGCGC,-0.149
8,AGGTCGAA,-0.0147
9,CAGCGAAA,-0.0475
10,CTAATCAA,0.264
11,CGTCTAAC,0.00543
12,AGGACGCC,-0.233
13,ATTAAGGC,0.083
14,CACTTTAC,0.0259
15,ATGGGGTG,0.107
16,GGTTACGA,-0.0968
17,GTGGCCTA,-0.27
18,CCCTTTCA,-0.163
19,CTCTTCCA,0.104
20,ACATTATA,0.0259
21,GCTAATAC,-0.15
22,CACGGGGA,-0.13
23,ATTACAAG,0.116
24,GACAAGTC,0.0909
25,ATGAATCA,0.48

row,Sequence,PBM E-score
1,TTGATAAA,0.159
2,ATAACGGG,0.0331
3,CCGTATCA,-0.154
4,ACGTACCT,0.0817
5,CCTCACGC,-0.0626
6,CAATTCAC,0.00416
7,TGAGCACA,0.0308
8,CCCCGACA,-0.259
9,AATTCCGT,-0.0163
10,ACGCATGA,0.146
11,CGGTGCAA,-0.205
12,ACCAAGTC,0.185
13,CTCACCAG,0.108
14,TGCCGCAA,-0.0744
15,TATGAGAA,0.0045
16,AGGAACAT,-0.094
17,AGAAACTA,0.00317
18,CTCAGCTA,0.0318
19,GATCAATA,0.0196
20,ATAATTCG,-0.0723
21,CAAGTAGC,-0.102
22,CGTCCACG,-0.0549
23,AGCTTTTA,-0.0383
24,CGGGCTAC,-0.0732
25,CTAACTGA,0.194

row,Sequence,PBM E-score
1,TGTACTAA,0.149
2,GCGACGCA,-0.266
3,CGTGTCTA,0.0936
4,GCGTGGAC,-0.241
5,ACCATGGA,-0.13
6,ACGCGAAC,-0.175
7,GAAATACA,-0.159
8,GTGGTCAA,-0.0298
9,CGAGATAC,0.152
10,AGTCCACC,0.286
11,AGTGGGCA,-0.178
12,CTCTGGGA,-0.125
13,AAGAAGAG,0.0167
14,ACGGGTCC,-0.229
15,TTCTAGAA,-0.0199
16,ACAACTGG,-0.153
17,ACATCTCA,-0.0708
18,ATTACCAG,0.0778
19,ATAAGACG,-0.0263
20,TATCCTGA,0.0939
21,ACCGCGCG,-0.0654
22,CGTGACTC,0.481
23,GATATCCA,0.0321
24,ATCAAAAA,0.141
25,CGTCACAC,-0.155

row,Sequence,PBM E-score
1,CAGCAGGG,-0.285
2,CCCTCCAC,-0.216
3,AACATTAG,-0.135
4,TACAAAAA,0.0717
5,GCACAGGC,-0.273
6,CAGACGGC,0.0127
7,AGCAGGCG,-0.0705
8,CGGGCCGC,-0.28
9,GACGTTGA,0.0804
10,CATTTACC,0.0252
11,CGTTTCAG,0.0529
12,AGCATGAG,0.156
13,CACAGTCA,0.411
14,ACGTACCC,0.0425
15,AATATGTG,0.0684
16,CCTTATAA,-0.066
17,CGTCAAAG,0.0679
18,CATTCATC,-0.0877
19,CGAAAACG,0.0119
20,GTGTGGGA,-0.235
21,TCAGCGGA,0.056
22,CGGATGGA,-0.0152
23,GCCTTATA,0.00107
24,AATGATCT,0.226
25,AGCATACC,-0.0889

row,Sequence,PBM E-score
1,CAGGCATC,0.0801
2,CCAAAAGC,-0.178
3,AGGATTAT,0.00303
4,ATCGAACC,-0.0791
5,ACAACTCG,-0.209
6,ACAGTACC,-0.105
7,AACCGCGC,-0.0822
8,GAAGTTCA,-0.024
9,AACCAGGT,-0.0103
10,ACTTTCGC,-0.0328
11,AGGGCCGC,-0.316
12,CGATGCGA,-0.162
13,GAAACAAA,0.0449
14,CTAGCTAG,0.0714
15,AGGTGGAG,-0.29
16,AGACGACC,-0.0204
17,AATTCTCA,0.0655
18,AGCGACCT,-0.305
19,GCTAGTCC,0.0288
20,AAAGAAAG,0.00468
21,AATAGCAT,-0.165
22,AGCTCTGA,0.0218
